Structures can show the parent of a compound that is named as a salt. ± gives the standard deviation of the averaged measurements. This is one part of the list.
Tested on: OVCAR8
Experiment: cell count relative to DMSO vehicle (fold change); OVCAR8 is a high-grade serous ovarian cancer line and CX-5461 an RNA polymerase I inhibitor; higher = more surviving senescent cells (less killing)
Details: senescence inducer: CX-5461 3 µM 48 h, then 6 d recovery (CX senescent), exposure time 24 h

Row | Compound | cell count (compound dose 1 µM) | cell count (compound dose 5 µM)
1 | COc1ccc(C(=O)c2ccccc2)c(O)c1 | 1.06 ± 0.046 | 1.11 ± 0.23
2 | O=C1NCCc2[nH]c(-c3ccncc3)cc21 | 0.749 ± 0.054 | 0.366 ± 0.049
3 | Cc1ccc(NC(=O)c2cccc(N(C)C)c2)cc1NC(=O)c1ccc(O)cc1 | 1.16 ± 0.042 | 1.11 ± 0.14
4 | CCCCOc1ccc(CC/C=C2\SC(=O)N(CCN)C2=O)cc1 [K145 (hydrochloride)] | 1.13 ± 0.24 | 1.11 ± 0.028
5 | O=C(CCCCCCC(=O)Nc1ccccc1)NO | 1.13 ± 0.12 | 0.739 ± 0.033
6 | O=C(/C=C/c1ccc(O)c(O)c1)c1ccc(O)cc1O [Butein] | 1.26 ± 0.057 | 1.294 ± 0.0092
7 | COc1cc2/c(=N/c3ccc(Br)cc3F)nc[nH]c2cc1OCC1CCN(C)CC1 [Vandetanib] | 0.995 ± 0.086 | 0.75 ± 0.019
8 | COc1ccc(CN(C(=O)Cc2cccs2)c2cc(OC)c(OC)c(OC)c2)cc1 | 1.21 ± 0.034 | 1 ± 0.17
9 | O=C(CCCCCN1C(=O)c2cccc3cccc(c23)C1=O)NO [Scriptaid] | 1.2 ± 0.17 | 0.871 ± 0.17
10 | CCN(CC)C(=S)SSC(=S)N(CC)CC | 0.98 ± 0.044 | 0.676 ± 0.078
11 | O=C(O)c1cc(=O)cc(C(=O)O)o1 [Chelidonic acid] | 1.06 ± 0.056 | 1.1 ± 0.14
12 | NC(N)=NC(=O)c1nc(Cl)c(N2CCCCCC2)nc1N [5-(N,N-Hexamethylene)-amiloride] | 0.707 ± 0.051 | 0.498 ± 0.054
13 | C[C@H](CCC(=O)NCC(=O)O)[C@H]1CC[C@H]2[C@@H]3[C@H](O)C[C@@H]4C[C@H](O)CC[C@]4(C)[C@H]3CC[C@]12C [Glycochenodeoxycholic acid] | 1.03 ± 0.13 | 1.08 ± 0.13
14 | C[C@H](CCC(=O)NCC(=O)O)[C@H]1CC[C@H]2[C@@H]3[C@H](O)C[C@@H]4C[C@H](O)CC[C@]4(C)[C@H]3CC[C@]12C [Glycochenodeoxycholic acid (sodium salt)] | 1.07 ± 0.11 | 1.1 ± 0.2
15 | CC(C)(C)C(=O)N1N=CC[C@H]1c1ccccc1 | 1.02 ± 0.13 | 0.944 ± 0.089
16 | COc1cc(N2CCC(N)CC2)ccc1Nc1ncc(Cl)c(-c2c[nH]c3ccccc23)n1 | 0.95 ± 0.058 | 0.431 ± 0.1
17 | Nc1[nH]nc2nnc(-c3c(-c4ccccc4)nn4ccccc34)cc12 | 1.05 ± 0.089 | 1.06 ± 0.091
18 | Cc1cccc(CC(=O)N2CCc3c2ccc(-c2cn(C)c4ncnc(N)c24)c3F)n1 | 1.04 ± 0.28 | 0.945 ± 0.23
19 | O=c1c(O[C@@H]2O[C@H](CO)[C@H](O)[C@H](O)[C@H]2O)c(-c2ccc(O)c(O)c2)oc2cc(O)cc(O)c12 [Hyperoside] | 1.3 ± 0.23 | 1.07 ± 0.057

Row | Compound | cell count (compound dose 1 µM) | cell count (compound dose 5 µM)
20 | CCn1c2ccccc2c2cc(CNCc3ccccc3OC)ccc21 | 1.16 ± 0.016 | 1.12 ± 0.033
21 | COCCOc1cc2nccc(Nc3n[nH]c(C)c3C)c2cc1S(=O)(=O)C(C)(C)C [RIP2 kinase inhibitor 2] | 1.12 ± 0.2 | 0.941 ± 0.34
22 | CC[C@@H](C)Nc1cc(C(=O)N[C@H]2C[C@H]3CC[C@@H](C2)N3c2ccc(C(=O)C3CC3)cn2)c(C)cc1C(N)=O | 1.11 ± 0.25 | 1.27 ± 0.32
23 | OCCN(CCO)c1nc(N2CCCCC2)c2nc(N(CCO)CCO)nc(N3CCCCC3)c2n1 | 1.1 ± 0.042 | 1.08 ± 0.12
24 | Cc1ccc(NC(=O)c2cccc(C(C)(C)C#N)c2)cc1Nc1ccc2ncn(C)c(=O)c2c1 | 1.32 ± 0.17 | 1.22 ± 0.18
25 | COc1cccc(Nc2nc(NCC3CCCO3)c3ccccc3n2)c1 (centres undefined) | 1.04 ± 0.23 | 1.05 ± 0.093
26 | Clc1ccc(C(c2c[nH]c3ccccc23)c2c[nH]c3ccccc23)cc1 | 1.12 ± 0.21 | 1.026 ± 0.0064
27 | CC(=O)N(Cc1ccc(F)cc1)C1=C(NCc2ccccc2)C(=O)c2ccccc2C1=O | 1.01 ± 0.062 | 1.16 ± 0.13
28 | Cc1ccc(F)c(NC(=O)Nc2ccc(-c3cccc4[nH]nc(N)c34)cc2)c1 [Linifanib (ABT-869)] | 1.16 ± 0.13 | 1.08 ± 0.17
29 | Cn1c(-c2ccccc2C(F)(F)F)nnc1C12CCC(c3noc(C4CC(F)(F)C4)n3)(CC1)CC2 | 1.22 ± 0.42 | 1.09 ± 0.16
30 | C=C1C(=O)[C@@]23[C@H](O)C[C@@H]4C(C)(C)C(=O)CC[C@@]4(C)[C@@H]2CC[C@@H]1[C@H]3O [Glaucocalyxin A] | 0.939 ± 0.13 | 0.0975 ± 0.056
31 | Cc1cc(CN2CCN(c3c(Br)cnc4nc(-c5ccc(N6CCN(C)CC6)cc5)[nH]c34)CC2)no1 | 1.09 ± 0.14 | 0.939 ± 0.014
32 | N#Cc1cc2cc(CN3CCC(Nc4ncnc5sc(CC(F)(F)F)cc45)CC3)ccc2[nH]1 | 1.09 ± 0.1 | 1.014 ± 0.0014
33 | Cc1ccc2nc(CN(CCN(Cc3nc4ccc(C)cc4[nH]3)Cc3nc4ccc(C)cc4[nH]3)Cc3nc4ccc(C)cc4[nH]3)[nH]c2c1 | 1.01 ± 0.17 | 1.17 ± 0.067
34 | CCc1ccc(-c2nc(CSCC(=O)NCCc3ccccc3)c(C)o2)cc1 | 1.13 ± 0.19 | 1.03 ± 0.16
35 | N#CCNC(=O)c1ccc(-c2ccnc(Nc3ccc(N4CCOCC4)cc3)n2)cc1 [Momelotinib] | 0.488 ± 0.14 | 0.253 ± 0.087
36 | CS(=O)(=O)OCCCCOS(C)(=O)=O | 1.06 ± 0.035 | 1.09 ± 0.11
37 | CC1(C)CCC(c2ccc(Cl)cc2)=C(CN2CCN(c3ccc(C(=O)NS(=O)(=O)c4ccc(N[C@H](CCN5CCNCC5)CSc5ccccc5)c(S(=O)(=O)C(F)(F)F)c4)cc3)CC2)C1 [Navitoclax-piperazine] | 1.11 ± 0.021 | 0.791 ± 0.099

Source: the supplement of paper PMC12462457
